Results as given in the supplement of paper PMC10126150.
Sequences with one replicate were seen in a single cluster, so their values are uncertain.

System: ATP
Assay: switch fluorescence ratio, 500 uM ATP over buffer (Cy3 cluster intensity, sum of 5 cycles each) (fold (ratio)); higher = stronger signal-on switching upon ATP binding; sequences stand for … in TCGTCGGCAGCGTCAGATGTGTATAAGAGACAGTTTTTTTTTTTTTTTTTTTTTTTTT…TC
Conditions: aptamer strand: ATP DNA aptamer (quencher-CACCTGGGGGAGTATTGCGGAGGAAGG + anchor), 100 nM annealed; ATP concentration: 500 uM; one replicate
Outline: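 Imaging in selection buffer was followed by imaging after 15 min with 500 uM ATP at 22 °C, for Cy3-labelled switching-strand clusters annealed to 100 nM quencher-labelled ATP aptamer on a modified Illumina MiSeq flow-cell. Five of these buffer/ATP cycles ran, separated by NaOH stripping and re-annealing. The fluorescence ratio per cluster is summed target-cycle over summed buffer-cycle Cy3 intensity, averaged per switch-domain sequence; clusters outside 100-1000 RFU were removed.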
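Further: ATP exposure 15 min at 22 °C before imaging.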

Sequence	switch fluorescence ratio
AAAAAAAACA	0.982
AAAAAAAAGT	0.978
AAAAAAACC	1.04
AAAAAACTAG	1.1
AAAAACCACC	1.21
AAAAAGTCCC	1.05
AAAAATAACT	1.1
AAAACGGCCC	1.06
AAAACTACGG	1.31
AAAACTTGGG	1.03
AAAAGAGGAC	1.02
AAAAGCATAG	1.01
AAAAGCTATT	0.987
AAAAGCTTCC	3.2
AAAAGGAAAC	0.98
AAAAGGATAC	1.11
AAAAGGCGGG	1.05
AAAATAAATC	1.05
AAAATAGAAT	1.04
AAAATAGCTA	1.03
AAAATAGTTG	1.02
AAAATATGA	0.96
AAAATCAAAA	1.01
AAAATCCCTC	0.997
AAAATGACGA	1.01
AAAATGCTTG	0.966

Sequence	switch fluorescence ratio
AAAATGGAG	1.43
AAAATTCTG	1.09
AAAATTTAAG	1.02
AAACAACCCC	1.2
AAACACTAAC	1.27
AAACACTCTC	1.03
AAACAGCGAC	1.1
AAACAGGCAT	0.998
AAACAGGGGC	1.11
AAACAGTAGG	1.06
AAACCAAGTG	1.04
AAACCAG	0.921
AAACCGCGGG	0.991
AAACCGGGG	1.09
AAACCTATTT	0.948
AAACCTCGCT	1.28
AAACCTGTT	1.06
AAACGGCATT	1.08
AAACGGGTGT	1.11
AAACGTAAA	1.09
AAACGTAGGT	1.03
AAACGTGGAA	0.969
AAACTAGAT	0.973
AAACTAGCAG	1.04
AAACTGGGCA	1.01
AAACTGTCTT	0.929

Sequence	switch fluorescence ratio
AAACTTATCA	1.01
AAAGAACTTT	1.06
AAAGAAGTCC	1.04
AAAGAATGCA	1
AAAGACATGC	0.985
AAAGACTAGT	0.984
AAAGAGACGG	1.03
AAAGATACGA	1.14
AAAGATGGTG	1.04
AAAGCAGCAT	1.02
AAAGCAGCTG	0.989
AAAGCCCAGG	0.994
AAAGCCGTC	1.03
AAAGCCTTCC	2.94
AAAGCGCTGA	1.03
AAAGCTCTG	0.977
AAAGCTGTGG	0.955
AAAGGAGAAG	0.989
AAAGGATCCG	1.05
AAAGGCAACC	1.05
AAAGGCCAAC	1.13
AAAGGGCCCC	0.948
AAAGGGCCGA	1.01
AAAGGGCTAG	0.993
AAAGGGGAA	0.974
AAAGGTACG	0.922

Sequence	switch fluorescence ratio
AAAGGTCATC	1.03
AAAGTAACGA	1.06
AAAGTGAATA	0.973
AAAGTGACAG	0.972
AAAGTGAGCG	0.963
AAAGTTTAAA	1.01
AAATAAGC	0.945
AAATAAGTAC	1.22
AAATAAGTT	1.04
AAATACTCAA	1.1
AAATACTTTA	1.01
AAATAGAACA	1.05
AAATAGATAG	0.98
AAATATAAAG	1.02
AAATATCGAA	0.986
AAATATCTTT	0.979
AAATATGCCA	0.984
AAATCGAACG	1.02
AAATCGGGTC	1.09
AAATCGTGAC	1.13
AAATGACTTT	0.975
AAATGCAGAA	1.02
AAATGCATAG	1.01
AAATGCATTC	1.03
AAATGCTGCG	1.01
AAATGCTTGT	0.95

Sequence	switch fluorescence ratio
AAATGGCGG	0.953
AAATGGTCAT	0.943
AAATGTCAAC	1
AAATTACACG	1.1
AAATTACTAC	1.06
AAATTAGCGC	0.974
AAATTATGTG	1.02
AAATTCGCA	1.02
AAATTCGCTT	1
AAATTGGATC	1.01
AAATTGGATT	1.02
AAATTGTCGC	0.99
AAATTTATT	1.01
AAATTTTGCC	0.946
AACAAAGGT	0.996
AACAACCAGA	1.03
AACAACGTAG	0.986
AACAAGGCGA	1
AACAATGTTT	0.987
AACACAGGCA	1.01
AACACATGTT	1.04
AACACTGCGT	1.02
AACACTTCGA	1.02
AACACTTTGT	1
AACAGAACGT	0.765
AACAGAGCTT	1.02

Sequence	switch fluorescence ratio
AACAGATTGC	0.979
AACAGCGTCT	1.05
AACAGCTCGG	1.02
AACAGGATTA	1.01
AACAGGGGAT	1.09
AACAGGTAGT	1.01
AACAGGTGCG	1.32
AACAGTTGCG	0.965
AACATAAGTC	1.03
AACATACGTG	1.2
AACATCATCC	1.09
AACATCATTA	0.998
AACATGAGTA	1.01
AACATGCATA	1.06
AACATGGGAG	1.01
AACATTACAG	1.18
AACATTGAA	1.03
AACATTGGAT	1
AACATTGGCG	0.968
AACATTTGGT	0.973
AACCAACGGG	1.04
AACCACCCTT	1.07
AACCAGGGTA	1.04
AACCATAATG	1
AACCCACTTA	1.27
AACCCCGAGC	1.4

Sequence	switch fluorescence ratio
AACCCGTTTG	0.976
AACCGCACTA	2.41
AACCGCCAAT	2.54
AACCGGCCTA	1.21
AACCGGCTAC	1.68
AACCGGTAT	0.992
AACCTAGACC	1.11
AACCTCCCCC	2.09
AACGAACGAT	1.34
AACGAAGGCC	0.929
AACGAATGTC	1.16
AACGACCGGT	1.01
AACGATGCGT	1.05
AACGATGTTC	0.979
AACGCAAAAA	1.26
AACGCACGCA	1.67
AACGCAGTAA	1.45
AACGCATTTA	1.12
AACGCCGGGC	1.04
AACGCGTAGG	1.02
AACGCTCTGA	1.02
AACGGAAAC	1.18
AACGGACAGA	1.37
AACGGCAGCG	1.06
AACGGCCGCG	1.13
AACGGCTTAG	1.01

Sequence	switch fluorescence ratio
AACGGGCTCA	1.02
AACGGGTAGT	0.994
AACGGTACAG	1.29
AACGGTACAT	1.37
AACGGTGGAG	0.988
AACGGTGGGC	1.01
AACGTACGAA	1.48
AACGTCAATT	1.21
AACGTGCATA	1.05
AACGTGGTCC	1.03
AACGTGTAA	1.01
AACGTTCTGG	0.977
AACGTTGAGG	0.986
AACGTTTGAG	0.998
AACTACGGCG	1.05
AACTACGGGA	1.19
AACTACGGTG	1.17
AACTACTGTA	1.86
AACTAGTGCA	0.954
